From PMC4336329 (PLoS ONE, 2015)
Out of some 310,000 compounds screened, about 2,200 (0.71%) showed an effect of 50% or more. The effect is printed as a negative number. The list shows a part of the results.

target: human ether-à-go-go-related gene (hERG) potassium channel (human, UniProt Q12809); assay: primary screen, population patch clamp on CHO cells stably expressing hERG
Sequence (Q12809 whole entry, looked up): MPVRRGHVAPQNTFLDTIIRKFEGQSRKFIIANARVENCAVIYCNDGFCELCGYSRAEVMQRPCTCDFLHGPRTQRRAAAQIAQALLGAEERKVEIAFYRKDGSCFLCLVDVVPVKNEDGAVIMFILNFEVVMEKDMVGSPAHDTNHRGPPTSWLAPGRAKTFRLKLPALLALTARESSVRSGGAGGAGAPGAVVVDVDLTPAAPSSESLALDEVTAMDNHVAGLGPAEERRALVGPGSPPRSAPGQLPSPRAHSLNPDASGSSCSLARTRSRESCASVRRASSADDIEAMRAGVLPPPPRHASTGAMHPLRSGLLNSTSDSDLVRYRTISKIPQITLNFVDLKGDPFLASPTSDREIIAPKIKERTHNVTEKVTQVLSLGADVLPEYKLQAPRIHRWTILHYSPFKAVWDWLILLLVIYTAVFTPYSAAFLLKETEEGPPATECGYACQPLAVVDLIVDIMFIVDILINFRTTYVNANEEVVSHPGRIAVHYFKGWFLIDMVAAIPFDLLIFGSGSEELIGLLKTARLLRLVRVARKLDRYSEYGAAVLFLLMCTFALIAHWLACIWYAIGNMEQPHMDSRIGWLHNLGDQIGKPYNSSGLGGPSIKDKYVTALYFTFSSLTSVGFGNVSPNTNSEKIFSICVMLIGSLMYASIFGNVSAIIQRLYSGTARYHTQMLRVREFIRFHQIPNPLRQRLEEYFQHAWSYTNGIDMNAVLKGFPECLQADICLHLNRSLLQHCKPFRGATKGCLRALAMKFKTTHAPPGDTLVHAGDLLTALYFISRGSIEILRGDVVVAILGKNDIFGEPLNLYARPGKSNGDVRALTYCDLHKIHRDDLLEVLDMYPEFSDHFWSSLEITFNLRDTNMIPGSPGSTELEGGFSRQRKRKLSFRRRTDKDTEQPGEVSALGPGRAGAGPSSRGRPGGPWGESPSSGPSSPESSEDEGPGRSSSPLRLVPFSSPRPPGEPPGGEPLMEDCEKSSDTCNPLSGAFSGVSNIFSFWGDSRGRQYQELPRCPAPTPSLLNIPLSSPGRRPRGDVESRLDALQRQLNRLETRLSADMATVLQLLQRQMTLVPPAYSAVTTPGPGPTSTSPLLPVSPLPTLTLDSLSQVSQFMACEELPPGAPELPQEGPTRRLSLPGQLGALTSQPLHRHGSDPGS

| Compound | hERG current change (%, negative = inhibition) at 1uM [%] |
| --- | --- |
| CC(C)c1ccc(CNC(=O)C(=O)NCCCn2ccnc2)cc1 | 9.36 |
| C/C(=N\NC(=O)c1cccc(C)c1)c1cccc(NC(=O)c2ccco2)c1 | 4.73 |
| O=C(Oc1ccc(Cl)c2cccnc12)N1CCCCCC1 | 8.56 |
| CCOC(=O)c1c(C)[nH]c(C(=O)N/N=C/c2cccc(OC)c2)c1C | 4.57 |
| CCS(=O)(=O)Nc1cccc(C2=NN(S(=O)(=O)c3ccc(F)cc3)C(c3cccs3)C2)c1 (centres unmarked) | 6.75 |
| Cc1cc(Br)cn2cc(C(=O)O)nc12 | 14.4 |
| COc1cccc(-c2nnc(N(C)C(=O)C3CCOC3)s2)c1 (centres unmarked) | 4.52 |
| Cc1cccc(C)c1NC(=O)CNC(=O)Cc1c[nH]c2ccccc12 | 12 |
| CCOC(=O)c1cc2occc2n1CC(=O)N1CCCc2ccccc21 | 7.02 |
| O=C(CSc1nnc(-c2ccncc2)n1-c1ccccc1)NC1CC1 | 8.15 |
| CCS(=O)(=O)N1CCCC(C(=O)NCCc2ccccc2)C1 (centres unmarked) | -1.37 |
| CC(NC(=O)NC(=O)c1ccc(Cl)cc1)c1ccccc1 (centres unmarked) | 16.6 |
| CCN(CC)CCn1cnc2c([nH]c3cccc(OC)c32)c1=O | 2.43 |
| O=C(c1ccccc1[N+](=O)[O-])N1CCN(c2ccc(N3CCOCC3)nn2)CC1 | 15.1 |
| CSCCC(NC(=O)/C(=C\c1ccc(Cl)cc1)NC(=O)c1ccccc1)C(=O)O (centres unmarked) | 23.2 |
| COc1cc(C)c(C(C)C)cc1S(=O)(=O)NCCCn1ccnc1 | -0.978 |
| CCN(CC1COc2ccccc2O1)C(=O)c1ccc(Cl)c(S(=O)(=O)N2CC(C)OC(C)C2)c1 (centres unmarked) | 1.6 |
| CN1CCN(CCCNC(=O)C2CCN(c3nnc(-n4cccc4)s3)CC2)CC1 | 15.3 |
| COc1ccc(C(=O)OCC(=O)Nc2cccc(C(C)=O)c2)c(OC)c1OC | -3.86 |
| COC(=O)c1ccc(CSc2nc3c(cnn3-c3ccc(C)c(C)c3)c(=O)[nH]2)o1 | 11.3 |
| Cc1nnc(N/N=C/c2cccc(OCc3ccc(Cl)c(Cl)c3)c2)n1N.Cl | 11.4 |
| Cc1ccc(C=C2C(=O)c3ccccc3C2=O)s1 | 4.37 |

| Compound | hERG current change (%, negative = inhibition) at 1uM [%] |
| --- | --- |
| O=C(Nc1ccccc1N1CCN(C(=O)c2ccccc2)CC1)c1ccc(Cl)cc1 | -7.21 |
| CC(=O)OC(C(=O)NCc1ccc2c(c1)OCO2)c1ccccc1Cl (centres unmarked) | 22 |
| COc1ccc(NS(=O)(=O)c2cccc(C(=O)NC3CCN(Cc4ccccc4)CC3)c2)cc1 | -8.33 |
| Nc1[nH]n(-c2ccccc2)c(=O)c1N=Nc1ccc2c(c1)OCCO2 | 12.1 |
| Cc1cc(SCc2ccc(F)cc2)nc(=O)[nH]1 | 14.2 |
| COc1ccc(S(=O)(=O)Nc2cc3c4c(c2)CCN4C(=O)CC3)cc1OC | 0.339 |
| O=C(COc1ccccc1)n1nc(-c2ccc(Cl)cc2)nc1NCc1ccco1 | 4.9 |
| O=S(=O)(NCCc1ccncc1)c1cc(Br)ccc1F | 2.96 |
| Cc1ccc(S(=O)(=O)NCC(=O)OCC(=O)c2cc(C)n(-c3ccccc3)c2C)cc1 | 12.1 |
| N#Cc1nc(COc2ccccc2)oc1N1CCC(Cc2ccccc2)CC1 | 12.6 |
| O=C(Cc1ccc(F)cc1)N1CCC2(CC1)NCCc1[nH]cnc12 | 14.4 |
| Cc1ccc(S(=O)(=O)N2CCC(C(=O)NCCCOC(C)C)CC2)cc1 | 12.9 |
| CSc1ncccc1C(=O)OCc1ccc(C#N)cc1.Cl | 12.1 |
| Cc1ccc(C(=O)Nc2ccnc(-c3cccnc3)n2)cc1 | 13 |
| N/C(=N\OC(=O)c1ccc(Cl)cc1Cl)c1ccncc1 | 9.54 |
| COc1cccc2cc(C(=O)Nc3cc(Cl)ccc3N3CCOCC3)c(=O)oc12 | 15.7 |
| CCN(CC)S(=O)(=O)c1ccc2c(c1)c(=O)c(C(=O)NCCN(C)CCc1ccccc1)cn2C | -44.7 |
| COc1ccccc1NC(=S)NNC(=O)c1cc(C)n(C)n1 | 8.95 |
| O=C(OCn1nnc2ccccc2c1=O)c1ccc(N2CCOCC2)c([N+](=O)[O-])c1 | 16.1 |
| CCN(CC)CC(C)CNC(=O)CN1C(=O)CSc2ccc(S(=O)(=O)N3CCOCC3)cc21 (centres unmarked) | -5.55 |
| O=C(Nc1ccc(NC(=S)NC(=O)c2ccco2)cc1)c1ccccc1 | 9.07 |
| CCOc1ccc2nc(NC(=O)CSCC(=O)Nc3cc(C)on3)sc2c1 | 17.9 |
